The source of these data is paper PMC7519094.

No constants are given. Whether binding was seen depends on the method and setting. In cells and extracts the contact can be indirect. Some entries that bind do so weakly or less than the wild type. Sequences can lack the tags named with a protein.

The target in assay [1] is T1, LET2-FLAG (C-terminal FLAG-tagged LET2/MDS1) (Arabidopsis thaliana) (UniProt Q9FID9).
T1 sequence: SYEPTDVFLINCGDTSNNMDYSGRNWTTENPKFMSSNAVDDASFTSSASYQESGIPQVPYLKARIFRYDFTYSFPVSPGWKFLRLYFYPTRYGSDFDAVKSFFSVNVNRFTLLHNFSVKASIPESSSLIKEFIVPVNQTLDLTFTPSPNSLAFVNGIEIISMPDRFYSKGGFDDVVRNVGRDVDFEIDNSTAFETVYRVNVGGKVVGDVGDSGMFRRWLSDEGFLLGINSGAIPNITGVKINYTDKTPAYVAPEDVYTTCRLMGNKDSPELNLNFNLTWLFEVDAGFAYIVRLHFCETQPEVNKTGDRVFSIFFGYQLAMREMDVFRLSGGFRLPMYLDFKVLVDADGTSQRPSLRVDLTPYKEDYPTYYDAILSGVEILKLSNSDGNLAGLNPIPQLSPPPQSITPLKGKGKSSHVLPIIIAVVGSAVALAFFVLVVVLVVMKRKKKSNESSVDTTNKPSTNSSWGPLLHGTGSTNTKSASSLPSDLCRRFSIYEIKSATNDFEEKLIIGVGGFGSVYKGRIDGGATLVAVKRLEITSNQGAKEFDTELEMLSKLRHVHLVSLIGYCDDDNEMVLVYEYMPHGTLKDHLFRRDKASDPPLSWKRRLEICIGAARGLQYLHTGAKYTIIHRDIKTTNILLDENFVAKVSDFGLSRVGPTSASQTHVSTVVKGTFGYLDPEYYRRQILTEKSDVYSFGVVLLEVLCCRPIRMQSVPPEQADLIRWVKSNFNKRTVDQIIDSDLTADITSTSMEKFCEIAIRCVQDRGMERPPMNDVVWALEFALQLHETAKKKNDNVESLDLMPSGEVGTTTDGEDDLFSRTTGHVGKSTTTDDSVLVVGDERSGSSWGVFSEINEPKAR
Nature of the assay: co-IP; tagged proteins co-expressed in Arabidopsis protoplasts; lysate in 100 mM NaCl, 10 mM HEPES pH 7.5, 0.5% Triton X-100; precipitated with α-FLAG affinity beads at 4 °C for 2 h; immunoblot with α-HA and α-FLAG.

Assay [2] addresses T2, HIS-SUMO-LET2^ex (LET2/MDS1 extracellular domain) (Arabidopsis thaliana) (UniProt Q9FID9).
T2 sequence: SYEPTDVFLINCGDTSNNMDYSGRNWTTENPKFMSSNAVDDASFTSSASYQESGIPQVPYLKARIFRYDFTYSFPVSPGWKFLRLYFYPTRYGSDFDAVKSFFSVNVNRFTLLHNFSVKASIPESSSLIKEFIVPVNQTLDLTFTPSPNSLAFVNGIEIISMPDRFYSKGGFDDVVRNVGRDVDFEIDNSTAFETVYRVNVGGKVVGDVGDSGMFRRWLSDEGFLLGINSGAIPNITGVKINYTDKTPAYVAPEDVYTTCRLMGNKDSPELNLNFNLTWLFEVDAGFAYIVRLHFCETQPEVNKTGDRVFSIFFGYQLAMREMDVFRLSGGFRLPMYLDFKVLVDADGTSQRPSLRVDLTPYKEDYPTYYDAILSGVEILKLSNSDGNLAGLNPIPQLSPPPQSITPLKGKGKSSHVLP
The assay can be described thus: pull-down; about 10 μg purified HIS-SUMO-LET2^ex mixed with LET1-FLAG protoplast lysate in IP buffer (10 mM HEPES pH 7.5, 100 mM NaCl, 10% glycerol, 0.5% Triton X-100) at 4 °C; Ni-NTA agarose; α-FLAG immunoblot; only the target purified.

Assay [3] addresses T3, MEKK2-FLAG (Arabidopsis thaliana) (UniProt O81472).
T3 sequence: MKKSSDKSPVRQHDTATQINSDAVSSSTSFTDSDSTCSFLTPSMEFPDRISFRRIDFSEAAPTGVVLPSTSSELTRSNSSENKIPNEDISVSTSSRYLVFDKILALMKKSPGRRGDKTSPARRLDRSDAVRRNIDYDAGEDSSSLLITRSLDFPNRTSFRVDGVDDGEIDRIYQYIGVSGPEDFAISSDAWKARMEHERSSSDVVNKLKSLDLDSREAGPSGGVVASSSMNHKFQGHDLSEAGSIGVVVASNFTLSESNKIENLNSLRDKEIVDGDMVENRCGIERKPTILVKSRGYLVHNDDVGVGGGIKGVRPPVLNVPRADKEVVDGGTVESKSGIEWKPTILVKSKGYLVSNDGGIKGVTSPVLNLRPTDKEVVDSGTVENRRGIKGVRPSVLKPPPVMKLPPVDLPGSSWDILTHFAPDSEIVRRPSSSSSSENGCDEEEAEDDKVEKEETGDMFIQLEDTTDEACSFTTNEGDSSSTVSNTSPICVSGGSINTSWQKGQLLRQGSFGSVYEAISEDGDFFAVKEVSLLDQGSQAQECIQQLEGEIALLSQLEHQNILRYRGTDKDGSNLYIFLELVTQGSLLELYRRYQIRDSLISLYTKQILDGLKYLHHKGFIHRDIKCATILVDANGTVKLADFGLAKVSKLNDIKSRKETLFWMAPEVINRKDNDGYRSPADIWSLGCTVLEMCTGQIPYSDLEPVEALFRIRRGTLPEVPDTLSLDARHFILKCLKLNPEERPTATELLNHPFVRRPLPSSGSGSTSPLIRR
The assay can be described thus: co-IP; tagged proteins co-expressed in Arabidopsis protoplasts; lysate in 100 mM NaCl, 10 mM HEPES pH 7.5, 0.5% Triton X-100; precipitated with α-FLAG affinity beads at 4 °C for 2 h; immunoblot with α-HA and α-FLAG.

The target of assay [4] is T4, SUMM2-FLAG (Arabidopsis thaliana) (UniProt P60838).
T4 sequence: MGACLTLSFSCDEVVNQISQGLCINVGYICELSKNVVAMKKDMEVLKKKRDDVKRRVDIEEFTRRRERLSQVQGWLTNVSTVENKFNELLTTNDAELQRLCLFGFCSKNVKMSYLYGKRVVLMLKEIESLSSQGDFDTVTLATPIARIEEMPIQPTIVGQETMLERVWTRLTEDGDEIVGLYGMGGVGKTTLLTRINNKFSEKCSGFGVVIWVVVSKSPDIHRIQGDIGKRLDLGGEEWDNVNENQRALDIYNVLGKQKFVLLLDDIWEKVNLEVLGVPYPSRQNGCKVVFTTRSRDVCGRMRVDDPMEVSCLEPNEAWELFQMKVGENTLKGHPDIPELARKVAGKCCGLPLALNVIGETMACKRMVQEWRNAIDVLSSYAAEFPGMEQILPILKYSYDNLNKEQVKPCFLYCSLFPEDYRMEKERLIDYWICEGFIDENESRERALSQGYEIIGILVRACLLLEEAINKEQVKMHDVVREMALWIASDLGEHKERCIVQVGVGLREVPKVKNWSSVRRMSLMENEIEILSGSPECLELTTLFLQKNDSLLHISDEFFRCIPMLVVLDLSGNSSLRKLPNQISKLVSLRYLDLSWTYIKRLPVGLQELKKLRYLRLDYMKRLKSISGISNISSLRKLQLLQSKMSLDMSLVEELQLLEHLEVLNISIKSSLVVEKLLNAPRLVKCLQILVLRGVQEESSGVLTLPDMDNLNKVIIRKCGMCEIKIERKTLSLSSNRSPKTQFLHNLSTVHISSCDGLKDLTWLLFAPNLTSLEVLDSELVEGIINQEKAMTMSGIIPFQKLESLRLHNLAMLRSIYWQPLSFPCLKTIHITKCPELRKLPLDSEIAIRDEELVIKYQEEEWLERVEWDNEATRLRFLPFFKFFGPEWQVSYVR
The description is as above.

B1: LET1-HA (receptor, UniProt O22187 29-834)
chain: DTSTYTRPENFYVNCGSDSNVFYGGQTFVGDTNSSTNSVSFTNKGTEVINDQSSVAPEIYRTVRIFRHPSSYKFKLDSLGLHFVRLHFSVVFSRADLLTARFTVSATSGSNHHLKSFSPQNLTNTPRVEEFLLMMNSLEFEIRFVPDHSSLALINAIEVFSAPDDLEIPSASDKNLHTIYRLNVGGEKITPDNDTLGRTWLPDDDDFLYRKDSARNINSTQTPNYVGGLSSATDSTAPDFVYKTAKAMNRSSNEQVGMLMNVTWSFKVKSNHRHFIRIHFSDILSNLSNSDSDFYLFVNGYWRVDVKPSEQPRLASPFFKDVVNVSDGSGLLNISIGTKEANKDAGFLNGLEMMEVLSKSGSDYSNRSSSRVHIITGCAVAAAAASALVFSLLFMVFLKRRRSKKTKPEVEGTVWSPLPLHRGGSSDNRPISQYHNSPLRNLHLGLTIPFTDILSATNNFDEQLLIGKGGFGYVYKAILPDGTKAAIKRGKTGSGQGILEFQTEIQVLSRIRHRHLVSLTGYCEENSEMILVYEFMEKGTLKEHLYGSNLPSLTWKQRLEICIGAARGLDYLHSSGSEGAIIHRDVKSTNILLDEHNIAKVADFGLSKIHNQDESNISINIKGTFGYLDPEYLQTHKLTEKSDVYAFGVVLLEVLFARPAIDPYLPHEEVNLSEWVMFCKSKGTIDEILDPSLIGQIETNSLKKFMEIAEKCLKEYGDERPSMRDVIWDLEYVLQLQMMTNRREAHEEDSTAINSGGSLVAPRLMVSDSFSTNSIFQNGDESKNRFGFTDSSETRVFSQLKISDAR
Take B1: the binding result in assay [1] is on record as “binds”.

B2: LET1-FLAG (C-terminal FLAG-tagged LET1) (receptor, UniProt O22187 29-834)
chain: DTSTYTRPENFYVNCGSDSNVFYGGQTFVGDTNSSTNSVSFTNKGTEVINDQSSVAPEIYRTVRIFRHPSSYKFKLDSLGLHFVRLHFSVVFSRADLLTARFTVSATSGSNHHLKSFSPQNLTNTPRVEEFLLMMNSLEFEIRFVPDHSSLALINAIEVFSAPDDLEIPSASDKNLHTIYRLNVGGEKITPDNDTLGRTWLPDDDDFLYRKDSARNINSTQTPNYVGGLSSATDSTAPDFVYKTAKAMNRSSNEQVGMLMNVTWSFKVKSNHRHFIRIHFSDILSNLSNSDSDFYLFVNGYWRVDVKPSEQPRLASPFFKDVVNVSDGSGLLNISIGTKEANKDAGFLNGLEMMEVLSKSGSDYSNRSSSRVHIITGCAVAAAAASALVFSLLFMVFLKRRRSKKTKPEVEGTVWSPLPLHRGGSSDNRPISQYHNSPLRNLHLGLTIPFTDILSATNNFDEQLLIGKGGFGYVYKAILPDGTKAAIKRGKTGSGQGILEFQTEIQVLSRIRHRHLVSLTGYCEENSEMILVYEFMEKGTLKEHLYGSNLPSLTWKQRLEICIGAARGLDYLHSSGSEGAIIHRDVKSTNILLDEHNIAKVADFGLSKIHNQDESNISINIKGTFGYLDPEYLQTHKLTEKSDVYAFGVVLLEVLFARPAIDPYLPHEEVNLSEWVMFCKSKGTIDEILDPSLIGQIETNSLKKFMEIAEKCLKEYGDERPSMRDVIWDLEYVLQLQMMTNRREAHEEDSTAINSGGSLVAPRLMVSDSFSTNSIFQNGDESKNRFGFTDSSETRVFSQLKISDAR
As for B2, in assay [2], the binding entry is recorded as “binds”.

B3: LET2-HA (LETUM2/MEDOS1, C-terminal HA tag) (receptor, UniProt Q9FID9 22-880)
chain: SYEPTDVFLINCGDTSNNMDYSGRNWTTENPKFMSSNAVDDASFTSSASYQESGIPQVPYLKARIFRYDFTYSFPVSPGWKFLRLYFYPTRYGSDFDAVKSFFSVNVNRFTLLHNFSVKASIPESSSLIKEFIVPVNQTLDLTFTPSPNSLAFVNGIEIISMPDRFYSKGGFDDVVRNVGRDVDFEIDNSTAFETVYRVNVGGKVVGDVGDSGMFRRWLSDEGFLLGINSGAIPNITGVKINYTDKTPAYVAPEDVYTTCRLMGNKDSPELNLNFNLTWLFEVDAGFAYIVRLHFCETQPEVNKTGDRVFSIFFGYQLAMREMDVFRLSGGFRLPMYLDFKVLVDADGTSQRPSLRVDLTPYKEDYPTYYDAILSGVEILKLSNSDGNLAGLNPIPQLSPPPQSITPLKGKGKSSHVLPIIIAVVGSAVALAFFVLVVVLVVMKRKKKSNESSVDTTNKPSTNSSWGPLLHGTGSTNTKSASSLPSDLCRRFSIYEIKSATNDFEEKLIIGVGGFGSVYKGRIDGGATLVAVKRLEITSNQGAKEFDTELEMLSKLRHVHLVSLIGYCDDDNEMVLVYEYMPHGTLKDHLFRRDKASDPPLSWKRRLEICIGAARGLQYLHTGAKYTIIHRDIKTTNILLDENFVAKVSDFGLSRVGPTSASQTHVSTVVKGTFGYLDPEYYRRQILTEKSDVYSFGVVLLEVLCCRPIRMQSVPPEQADLIRWVKSNFNKRTVDQIIDSDLTADITSTSMEKFCEIAIRCVQDRGMERPPMNDVVWALEFALQLHETAKKKNDNVESLDLMPSGEVGTTTDGEDDLFSRTTGHVGKSTTTDDSVLVVGDERSGSSWGVFSEINEPKAR
Consider B3, for which the binding entry in assay [3] and in assay [4] was “binds” throughout.
